Laboratory results from PMC8516944.
These are yes or no findings as the source states them, for the method shown. For some of these results: Binding seen in cells or lysates may run through a third protein. Some entries that bind do so weakly or less than the wild type. For some of these results: Sequences can lack the tags named with a protein.

What was measured:
[1] = target: T1, FLAG-AFP (alpha fetoprotein), expressed in HEK293T cells (UniProt P02771); experiment: co-IP; HEK293T cells co-transfected with FLAG-AFP and HA-GP73 (or HA-tagged deletion mutants); IP lysis buffer (25 mM Tris-HCl pH 7.4, 150 mM NaCl, 1% Nonidet P-40, 1 mM EDTA, 5% glycerol); immunoprecipitation with anti-HA or anti-FLAG, Protein A-Sepharose, overnight at 4 °C; western blotting
T1 sequence: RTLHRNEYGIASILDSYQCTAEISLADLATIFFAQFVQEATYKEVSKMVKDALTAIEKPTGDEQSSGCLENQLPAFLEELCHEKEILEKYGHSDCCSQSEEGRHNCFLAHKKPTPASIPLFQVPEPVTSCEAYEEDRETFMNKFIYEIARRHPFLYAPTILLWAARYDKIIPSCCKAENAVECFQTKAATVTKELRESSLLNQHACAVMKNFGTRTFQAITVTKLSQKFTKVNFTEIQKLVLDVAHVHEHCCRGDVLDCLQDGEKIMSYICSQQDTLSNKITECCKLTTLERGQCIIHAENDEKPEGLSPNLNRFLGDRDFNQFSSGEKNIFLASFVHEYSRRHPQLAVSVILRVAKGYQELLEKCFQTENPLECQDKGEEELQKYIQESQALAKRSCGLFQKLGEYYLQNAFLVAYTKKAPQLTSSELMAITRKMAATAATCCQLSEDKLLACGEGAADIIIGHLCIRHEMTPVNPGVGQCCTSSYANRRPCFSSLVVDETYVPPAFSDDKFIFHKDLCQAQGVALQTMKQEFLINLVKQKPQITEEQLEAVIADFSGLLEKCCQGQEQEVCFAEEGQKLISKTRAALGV

[2] = target: T2, endogenous AFP of HepG2 cells (human (endogenous in HepG2)) (UniProt P02771); experiment: co-IP; endogenous proteins of HepG2 cells; IP lysis buffer; immunoprecipitation with anti-AFP or anti-GP73 antibody, Protein A-Sepharose, overnight at 4 °C; western blotting
T2 sequence: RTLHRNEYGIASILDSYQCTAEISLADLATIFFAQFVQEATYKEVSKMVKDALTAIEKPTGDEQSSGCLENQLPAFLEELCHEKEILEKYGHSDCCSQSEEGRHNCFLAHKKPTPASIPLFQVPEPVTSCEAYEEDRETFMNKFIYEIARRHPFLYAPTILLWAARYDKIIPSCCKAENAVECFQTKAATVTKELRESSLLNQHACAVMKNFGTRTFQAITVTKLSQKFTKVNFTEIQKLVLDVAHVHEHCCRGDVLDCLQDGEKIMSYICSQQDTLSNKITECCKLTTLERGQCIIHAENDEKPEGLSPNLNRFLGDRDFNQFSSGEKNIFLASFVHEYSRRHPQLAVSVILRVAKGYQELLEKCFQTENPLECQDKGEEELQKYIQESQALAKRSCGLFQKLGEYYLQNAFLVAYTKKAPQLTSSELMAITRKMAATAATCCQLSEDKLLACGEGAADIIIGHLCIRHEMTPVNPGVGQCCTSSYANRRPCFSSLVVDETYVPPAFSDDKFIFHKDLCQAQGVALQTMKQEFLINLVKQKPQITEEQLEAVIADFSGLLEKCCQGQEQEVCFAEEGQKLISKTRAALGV

[3] = target: T3, GST-AFP (UniProt P02771); experiment: pull-down; GST or GST-AFP on glutathione-Sepharose beads in PBS; His-GP73 added for 4 h at 4 °C; western blotting with anti-His; both purified
T3 sequence: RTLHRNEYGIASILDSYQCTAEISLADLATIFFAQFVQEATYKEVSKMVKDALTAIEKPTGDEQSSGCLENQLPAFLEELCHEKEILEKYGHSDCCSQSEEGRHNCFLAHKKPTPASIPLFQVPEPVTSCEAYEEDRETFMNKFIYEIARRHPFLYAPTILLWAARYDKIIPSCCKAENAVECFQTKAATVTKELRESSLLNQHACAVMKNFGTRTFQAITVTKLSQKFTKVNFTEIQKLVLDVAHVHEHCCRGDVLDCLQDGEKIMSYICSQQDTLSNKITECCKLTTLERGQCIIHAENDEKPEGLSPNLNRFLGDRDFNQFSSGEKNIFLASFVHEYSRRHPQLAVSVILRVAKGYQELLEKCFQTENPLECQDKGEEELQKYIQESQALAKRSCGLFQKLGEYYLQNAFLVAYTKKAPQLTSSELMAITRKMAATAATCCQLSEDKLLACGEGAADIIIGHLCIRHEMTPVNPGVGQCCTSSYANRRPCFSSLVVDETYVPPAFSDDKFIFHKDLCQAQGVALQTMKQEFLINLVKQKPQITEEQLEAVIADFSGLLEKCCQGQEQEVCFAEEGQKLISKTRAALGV

[4] = target: T4, GST-tagged domain III of GP73 (amino acid residues 36–205) (UniProt Q8NBJ4); experiment: pull-down; GST or GST-tagged domains of GP73 on glutathione-Sepharose beads; lysate of HEK293T cells transfected with FLAG-AFP; western blotting with anti-FLAG; only the target purified
T4 sequence: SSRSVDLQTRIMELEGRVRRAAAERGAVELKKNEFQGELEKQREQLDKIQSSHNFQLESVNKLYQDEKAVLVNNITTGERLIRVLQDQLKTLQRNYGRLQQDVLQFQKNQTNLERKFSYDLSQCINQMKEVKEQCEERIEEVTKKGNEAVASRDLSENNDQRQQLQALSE

B1: HA-GP73 (Golgi protein 73), wild type, expressed in HEK293T cells (protein, UniProt Q8NBJ4 1-401)
chain: MMGLGNGRRSMKSPPLVLAALVACIIVLGFNYWIASSRSVDLQTRIMELEGRVRRAAAERGAVELKKNEFQGELEKQREQLDKIQSSHNFQLESVNKLYQDEKAVLVNNITTGERLIRVLQDQLKTLQRNYGRLQQDVLQFQKNQTNLERKFSYDLSQCINQMKEVKEQCEERIEEVTKKGNEAVASRDLSENNDQRQQLQALSEPQPRLQAAGLPHTEVPQGKGNVLGNSKSQTPAPSSEVVLDSKRQVEKEETNEIQVVNEEPQRDRLPQEPGREQVVEDRPVGGRGFGGAGELGQTPQVQAALSVSQENPEMEGPERDQLVIPDGQEEEQEAAGEGRNQQKLRGEDDYNMDENEAESETDKQAALAGNDRNIDVFNVEDQKRDTINLLDQREKRNHTL
Q: How did the binding [1] turn out when B1 was run?
A: binds

B2: endogenous GP73 of HepG2 cells (protein, UniProt Q8NBJ4 1-401)
chain: MMGLGNGRRSMKSPPLVLAALVACIIVLGFNYWIASSRSVDLQTRIMELEGRVRRAAAERGAVELKKNEFQGELEKQREQLDKIQSSHNFQLESVNKLYQDEKAVLVNNITTGERLIRVLQDQLKTLQRNYGRLQQDVLQFQKNQTNLERKFSYDLSQCINQMKEVKEQCEERIEEVTKKGNEAVASRDLSENNDQRQQLQALSEPQPRLQAAGLPHTEVPQGKGNVLGNSKSQTPAPSSEVVLDSKRQVEKEETNEIQVVNEEPQRDRLPQEPGREQVVEDRPVGGRGFGGAGELGQTPQVQAALSVSQENPEMEGPERDQLVIPDGQEEEQEAAGEGRNQQKLRGEDDYNMDENEAESETDKQAALAGNDRNIDVFNVEDQKRDTINLLDQREKRNHTL
Q: How did the binding [2] turn out when B2 was run?
A: binds

B3: His-GP73 (protein, UniProt Q8NBJ4 1-401)
chain: MMGLGNGRRSMKSPPLVLAALVACIIVLGFNYWIASSRSVDLQTRIMELEGRVRRAAAERGAVELKKNEFQGELEKQREQLDKIQSSHNFQLESVNKLYQDEKAVLVNNITTGERLIRVLQDQLKTLQRNYGRLQQDVLQFQKNQTNLERKFSYDLSQCINQMKEVKEQCEERIEEVTKKGNEAVASRDLSENNDQRQQLQALSEPQPRLQAAGLPHTEVPQGKGNVLGNSKSQTPAPSSEVVLDSKRQVEKEETNEIQVVNEEPQRDRLPQEPGREQVVEDRPVGGRGFGGAGELGQTPQVQAALSVSQENPEMEGPERDQLVIPDGQEEEQEAAGEGRNQQKLRGEDDYNMDENEAESETDKQAALAGNDRNIDVFNVEDQKRDTINLLDQREKRNHTL
Q: B3 was tested. Which binding [3] did it give?
A: binds

B4: FLAG-AFP (alpha fetoprotein), expressed in HEK293T cells (protein, UniProt P02771 19-609)
chain: RTLHRNEYGIASILDSYQCTAEISLADLATIFFAQFVQEATYKEVSKMVKDALTAIEKPTGDEQSSGCLENQLPAFLEELCHEKEILEKYGHSDCCSQSEEGRHNCFLAHKKPTPASIPLFQVPEPVTSCEAYEEDRETFMNKFIYEIARRHPFLYAPTILLWAARYDKIIPSCCKAENAVECFQTKAATVTKELRESSLLNQHACAVMKNFGTRTFQAITVTKLSQKFTKVNFTEIQKLVLDVAHVHEHCCRGDVLDCLQDGEKIMSYICSQQDTLSNKITECCKLTTLERGQCIIHAENDEKPEGLSPNLNRFLGDRDFNQFSSGEKNIFLASFVHEYSRRHPQLAVSVILRVAKGYQELLEKCFQTENPLECQDKGEEELQKYIQESQALAKRSCGLFQKLGEYYLQNAFLVAYTKKAPQLTSSELMAITRKMAATAATCCQLSEDKLLACGEGAADIIIGHLCIRHEMTPVNPGVGQCCTSSYANRRPCFSSLVVDETYVPPAFSDDKFIFHKDLCQAQGVALQTMKQEFLINLVKQKPQITEEQLEAVIADFSGLLEKCCQGQEQEVCFAEEGQKLISKTRAALGV
Q: B4 was tested. Which binding [4] did it give?
A: binds
